Source: PubChem BioAssay AID463173 (ICCB-Longwood Screening Facility, Harvard Medical School, 2010)
Hit rate of the full screen: of about 52,000 compounds, about 1,700 (3.3%) were called active. Cut-off read from the data, not from the text of the source: active = survival mostly below about 52% (no sharp cut-off); inactive = mostly above about 56%. The list shows a part of the results.

system: Wild type; assay: S. aureus survival, RN4220 and DeltatarO strains – OD600, teichoic acid synthesis inhibitors, primary screen (AID 463173); details: S. aureus RN4220 wild type/DeltatarO growth, OD600, 18 h, stronger effect = lower value, screened at 18.75 µg/mL (by protocol)

Row | Compound | survival
1 | COc1ccc(NC(=O)c2c(NC(=O)C(F)(F)F)sc3c2CCCCC3)cc1 | active: -1%
2 | CS(=O)(=O)N(Cc1ccccc1)c1ccc(C(=O)Nc2cccc(Cl)c2)cc1 | inactive: 66%
3 | COc1ccc(CNC(=O)c2ccc3c(O)c(S(=O)(=O)c4ccccc4)c(=O)[nH]c3c2)cc1 | inactive: 90%
4 | Cc1cccc(N2CCN(C(=O)c3nn(C)c4c3CS(=O)(=O)c3ccccc3-4)CC2)c1C | inactive: 85%
5 | CC(=O)c1cccc(NC(=O)CN2C(=O)CCc3cc(S(=O)(=O)N4CCCCC4)ccc32)c1 | inactive: 82%
6 | O=C(Nc1cccc(C(F)(F)F)c1)Nc1nnc(N2CCCCCC2)s1 | inactive: 89%
7 | COCCCNC(=O)CN1C(=O)c2cccnc2Sc2ccccc21 | inactive: 82%
8 | COc1ccccc1N1CCN(C(=O)c2cc(-c3ccc(C)c(F)c3)on2)CC1 | inactive: 92%
9 | Cc1ccc(NC(=O)CSc2nc(-c3ccco3)cc(C(F)(F)F)n2)c(C)c1 | inactive: 85%
10 | COc1cccc2cc(C(=O)Nc3ccc(CC(=O)O)cc3)c(=O)oc12 | inactive: 73%
11 | CCN(CC)CCNC(=O)C(=O)Nc1c2c(nn1-c1ccc(F)cc1)CSC2 | inactive: 71%
12 | COc1ccc(-c2cc(C(=O)Nc3sc4c(c3C(N)=O)CCCC4)no2)cc1 | inactive: 96%
13 | CCCCN1CC(c2nc3ccccc3n2CCCCOc2cc(C)cc(C)c2)CC1=O (stereo not given) | active: 14%
14 | Cc1ccn2c(NC3CCCCC3)c(C)nc2c1 | inactive: 101%
15 | CCOc1ccc(S(=O)(=O)N2Cc3ccccc3CC2C(=O)Nc2ccc(NC(C)=O)cc2)cc1 (stereo not given) | inactive: 80%
16 | CCCCN1C(=O)c2ccc(Br)cc2C1=O | inactive: 104%
17 | Cc1cccc(NC(=O)CSc2nc3ccc(NC(=O)COc4ccccc4C)cc3s2)c1 | inactive: 79%
18 | O=c1c2ccccc2ncn1-c1ccc(F)cc1 | inactive: 107%
19 | O=C(NCc1ccc(Cl)cc1)C1CCN(c2nn3cc(-c4ccc(F)cc4)nc3s2)CC1 | inactive: 78%
20 | Cc1c(C(=O)OCCOc2ccccc2)[nH]c2c1C(=O)CC(c1ccc(C(C)(C)C)cc1)C2 (stereo not given) | inactive: 78%
21 | CCn1c2c(c(=O)n3ncc(C(=O)Nc4cc(Cl)ccc4OC)c13)CN(Cc1ccc(OC)cc1)CC2 | inactive: 72%
22 | CC1CN(C(=O)NCc2ccccc2)c2cc(Cl)ccc2O1 (stereo not given) | inactive: 89%
23 | CCCNC(=O)CCC(=O)N1Cc2cccc(OC)c2Oc2ncccc21 | inactive: 74%

Row | Compound | survival
24 | COc1ccc(NC(=O)c2nc(S(C)(=O)=O)ncc2N(Cc2ccc(C)cc2)Cc2ccco2)cc1Cl | inactive: 86%
25 | COc1cccc(CNC(=O)c2cc(-c3ccc(Cl)s3)nc3ccccc23)c1 | inactive: 87%
26 | COc1ccc(Cl)cc1NC(=O)c1cc(-c2ccc3c(c2)OCO3)on1 | inactive: 81%
27 | COc1ccc(C)cc1NC(=O)N1CCN(S(=O)(=O)c2ccc3c(ccn3C)c2)CC1 | inactive: 22%
28 | CCCCc1cc(=O)oc2cc(C)c3c(C(C)(C)C)coc3c12 | inactive: 108%
29 | Cc1ncc(CO)c2c1Oc1nc(-c3ccc(Cl)cc3)nc(SCC(=O)N3CCCCC3)c1C2 | inactive: 79%
30 | Cc1cccc(CSc2nc3c(sc4ccccc43)c(=O)n2CCC(=O)NC(C)C)c1 | inactive: 129%
31 | O=C(Nc1nccs1)c1ccc(-c2ccc(Cl)cc2)o1 | inactive: 114%
32 | Cc1ccc(S(=O)(=O)c2cnc(SCC(=O)Nc3cccc(Cl)c3)nc2N)cc1C | inactive: 73%
33 | CCCN1CC=C2C(C#N)=C(N)C(C#N)(C#N)C(c3ccc(OCC(N)=O)cc3)C2C1 (stereo not given) | inactive: 99%
34 | COc1ccc(C(CC(=O)O)NC(=O)c2cc3ccccc3oc2=O)cc1OC (stereo not given) | inactive: 69%
35 | CSc1ccc(NC(=O)C(C)N2CCN(C)CC2)cc1 (stereo not given) | inactive: 94%
36 | CCN(CC)C(=O)Cn1cc(SCC(=O)Nc2cccc(F)c2)c2ccccc21 | inactive: 111%
37 | CCOC(=O)c1cnc2c(C)cc(C)cc2c1Nc1cccc(C(=O)O)c1 | active: 23%
38 | CCOCCCNC(=O)CN1C(=O)COc2ccc(S(=O)(=O)N3CCCCCC3)cc21 | inactive: 78%
39 | Cc1[nH]c(=O)[nH]c(=O)c1NC(=O)CSc1nc2c(C)cccc2cc1C#N | inactive: 95%
40 | Oc1ccc(Nc2nc3ccccc3n3cnnc23)cc1 | inactive: 78%
41 | Cc1cccc(Cn2c(=O)n(Cc3ccc(C(=O)NC4CCN(Cc5ccccc5)CC4)cc3)c(=O)c3ccccc32)c1 | inactive: 80%
42 | COc1ccc2oc(=O)c(C(=O)NCCO)cc2c1 | inactive: 105%
43 | O=C(Nc1cccc2cccnc12)c1ccccc1[N+](=O)[O-] | inactive: 72%
44 | Cc1ccc(C2c3c(-c4cc(C)ccc4O)n[nH]c3C(=O)N2Cc2ccco2)cc1 (stereo not given) | active: 1%
45 | Cc1ccc(-n2ncc(C(=O)NCCCN3CCCCC3)c2C2CCN(C(=O)OC(C)(C)C)CC2)c(C)c1 | inactive: 64%
46 | Cc1ccc(NC(=O)CSc2nnc3nc(C)cc(C)n23)cc1 | inactive: 73%

Row | Compound | survival
47 | COc1cc(C2C(C#N)=C(N)Oc3n[nH]c(C(F)(F)F)c32)ccc1OCC(N)=O (stereo not given) | inactive: 107%
48 | CC(=O)c1ccc(N2CCN(c3ccc(NC(=O)c4cccs4)cc3C(=O)O)CC2)cc1 | inactive: 74%
49 | CC(C(=O)NCc1ccccc1Cl)n1ccc2cc(S(=O)(=O)N3CCCCC3)ccc21 (stereo not given) | inactive: 87%
50 | CCc1cccc(C)c1NC(=O)CCCn1c(=O)c2cccn2c2cccnc21 | inactive: 95%
51 | O=C(C1c2ccccc2Oc2ccccc21)N1CCCCC1 | inactive: 103%
52 | O=C(O)/C=C/c1cccc(N=NN2CCCCC2)c1 | inactive: 107%
53 | CCOC(=O)c1ccccc1NC(=O)NC(C)c1c(-n2cccc2)sc(C)c1C (stereo not given) | inactive: 71%
54 | Cc1ccc(C)c(NC(=O)CN2C(=O)c3cccc4cccc2c34)c1 | inactive: 72%
55 | CCN(CC)C(=O)c1sc(NC(=O)c2nc3ncccn3n2)c(C(=O)OC)c1C | inactive: 131%
56 | Cn1c(-c2ccc3c(c2)OCO3)cnc1NCc1cc(Cl)ccc1O | inactive: 112%
57 | O=C(CSc1nc(-c2cccc(Cl)c2)nc2cc(=O)[nH]n12)Nc1ccccc1 | inactive: 78%
58 | CCSc1nnc(C2CCCN(C(=O)NCc3ccccc3)C2)n1C (stereo not given) | inactive: 88%
59 | O=c1c2ccccc2n2c(-c3ccccc3O)nnc2n1Cc1ccc(F)cc1 | inactive: 93%
60 | Cc1cccc(Cn2ccn(Cc3ccc(Cl)cc3)c(=O)c2=O)c1 | inactive: 126%
61 | O=C(c1ccccc1Br)N(Cc1ccco1)C1CCS(=O)(=O)C1 (stereo not given) | inactive: 97%
62 | CCCCCC(=O)N1c2ccccc2C(C)(c2ccccc2)CC1(C)C (stereo not given) | active: -2%
63 | CCCCOC(=O)Cc1c(C)[nH]c(=O)[nH]c1=O | inactive: 109%
64 | CCC(Sc1nc2c(sc3ccccc32)c(=O)n1CCc1ccccc1)C(=O)N(CC)CC (stereo not given) | inactive: 53%
65 | O=C(N/N=C/c1ccc(-c2ccc(Cl)c(C(=O)O)c2)o1)c1ccncc1 | inactive: 109%
66 | O=C(c1ccc2c(c1)N(Cc1ccccc1)C(=O)c1ccccc1S2(=O)=O)N1CCCC1 | inactive: 86%
67 | COc1cccc(CCNC(=O)Cn2c(-c3cccs3)cc3ccccc32)c1 | inactive: 96%
68 | COc1ccc(NC(=O)CN2C(=O)C(c3ccc(C(C)(C)C)cc3)=NC2(C)C)cc1Cl | inactive: 96%
69 | Cc1ccc(C)c(N2CCN(C(=O)Nc3cn(CC(C)C)c(=O)c4ccccc34)CC2)c1 | inactive: 135%

Row | Compound | survival
70 | COc1ccc(Cn2c(C(=O)O)c(CNCC(C)c3ccccc3)c3ccc(OC)cc32)cc1 (stereo not given) | inactive: 83%
71 | COc1ccccc1N1CCN(C(=O)C2CCN(S(=O)(=O)c3c(C)noc3/C=C/c3ccc(C)cc3)CC2)CC1 | inactive: 71%
72 | CCCCn1c(SCC(=O)Nc2cccc(OC)c2)nc2c(sc3ccccc32)c1=O | inactive: 78%
73 | COc1cccc(Cn2c(=O)n(CC3CCC(C(=O)N4CCCCC4)CC3)c(=O)c3sccc32)c1 (stereo not given) | inactive: 65%
74 | Cc1cccc(Cc2cnc(NC(=O)C3Cc4ccc(C)cc4C(=O)O3)s2)c1 (stereo not given) | inactive: 74%
75 | CC(C)NC(=O)CCn1c(SCc2c(F)cccc2Cl)nc2c(sc3ccccc32)c1=O | inactive: 87%
76 | CCOC(=O)N1CCN(Cc2nc3cc(NC(C)=O)ccc3n2C(C)C)CC1 | inactive: 84%
77 | Cc1cc(C)cc(-n2c(SCC(=O)NCc3ccco3)nc3c([nH]c4ccccc43)c2=O)c1 | inactive: 73%
78 | COc1ccc(NC(=O)NCCc2c(C)nn(C)c2C)c(OC)c1 | inactive: 57%
79 | Cc1nnc2c(N3CCN(c4ccccc4F)CC3)nc3ccccc3n12 | inactive: 90%
80 | COc1cccc(NC(=O)CSc2nnc(COc3ccc(Cl)cc3)o2)c1 | inactive: 91%
81 | Cc1ccc2c(c1)c(=O)c1ccccc1n2CCCC(=O)Nc1ccc(C)c(F)c1 | inactive: 85%
82 | Cc1cc(-n2c(SCC(=O)NCc3ccccc3)nc3ccsc3c2=O)ccc1Cl | inactive: 76%
83 | CCOC(=O)c1cc(-c2ccc(C)cc2)n(CCC(=O)Nc2nc3c(C)cccc3s2)c1C | inactive: 96%
84 | CCc1ccccc1NC(=O)N1CCC(NC(=O)C(C)(C)C)CC1 | inactive: 105%
85 | COc1ccc(NC(=O)c2ccco2)cc1NC(=O)C(C)C | inactive: 90%
86 | Cc1ccc(-n2nc3ccc(NC(=O)c4oc5ccc(C)cc5c4C)cc3n2)cc1 | inactive: 68%
87 | CCOc1ccc(OCC(=O)NCCS(=O)(=O)N2CCN(c3ccc(F)cc3)CC2)cc1 | inactive: 67%
88 | CCc1cccc(C)c1NS(=O)(=O)c1cc(-c2cc(C)no2)ccc1C | inactive: 89%
89 | COc1ccc(/C=C(\C#N)C(=O)NCc2ccco2)cc1C | inactive: 110%
90 | O=C(CCC1CCCC1)N1CCc2c([nH]c3ccccc23)C1c1ccc(Cl)cc1 (stereo not given) | inactive: 91%
